The source of these data is the supplement of paper PMC3334620.

Over roughly 33,000 sequences, “E-score (-0.5 to 0.5)” has its median near -0.04; the highest 2% begin near 0.36. This is one part of the list.

The target in this test is T1, Hmlalpha2 (UniProt P0CY09).
T1 sequence: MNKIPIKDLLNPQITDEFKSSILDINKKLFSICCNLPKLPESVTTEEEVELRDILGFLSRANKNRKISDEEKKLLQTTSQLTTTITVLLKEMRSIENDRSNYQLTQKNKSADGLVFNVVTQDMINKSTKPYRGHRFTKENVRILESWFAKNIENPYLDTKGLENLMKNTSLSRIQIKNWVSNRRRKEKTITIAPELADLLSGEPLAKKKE
The test is described as follows: PBM E-score (8-mer binding enrichment) (E-score (-0.5 to 0.5)); higher = stronger / more preferred TF binding; most listed sequences are background and not binding sites. As to conditions: protein concentration: 200 nM; construct: GST-full length. The essentials: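 Yeast transcription factors carrying a GST tag, as full-length proteins or DNA-binding domains, were produced by PURExpress in vitro transcription/translation. About 100-200 nM protein was applied to universal all-10-mer Agilent arrays, double-stranded by primer extension on fresh or once-stripped slides. Bound protein was detected with fluorescent anti-GST, and scans were normalised with masliner. The Universal PBM Analysis Suite gave each ungapped eight-base word, pooled with its reverse complement, an E-score, a modified Wilcoxon-Mann-Whitney statistic.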
In the case of AACTGCGA, the “PBM E-score” value was -0.253. AACCCCAG: the “PBM E-score” value is -0.199. CTGGAAGA: the “PBM E-score” value is -0.183. The same measure for ATTTTTCC: -0.0437; for AACCCCCG: -0.397; for AGGTGCGA: -0.219. On to GCTGCTGA, for which the “PBM E-score” value came to 0.0218. The same measure for AGAAAGAA: -0.133; for ATTACCGG: -0.139. The figure for TCTAGTAA is 0.222. The figure for CATCCTGG is -0.13; for CGGCTCGA it is -0.0892; for ATGGATGG it is -0.107. Take ATTAGCAG: the “PBM E-score” value is -0.147. For the sequence CCATTGGC, the “PBM E-score” value was -0.198. The same measure for AGTTTCGA: -0.184; for AGACCTGG: -0.34. TCATTAGA: the “PBM E-score” value came out at 0.0985. Turning to TCGCGCCA, the “PBM E-score” value is -0.116.

ATTACTAC: the “PBM E-score” value amounted to 0.274.

With ACAGCCGT, the “PBM E-score” value worked out at 0.0172. Take CGTAGGAA: the “PBM E-score” value is -0.00683. As to AAGTTATA, the “PBM E-score” value was 0.238. As to ATGCTAGA, the “PBM E-score” value is 0.123. For ACCGAACC, the “PBM E-score” value is -0.277.

Turning to GGCGTATA, the “PBM E-score” value came to 0.106. The figure for ACAAAGCG is 0.159; for GATTAACA it is 0.413; for ACGGAGAC it is 0.02.

GCTAGCGA: the “PBM E-score” value was -0.117. AACTTTCC: the “PBM E-score” value was -0.311. The same measure for TACCTACA: 0.301. Regarding ACTAACCG, the “PBM E-score” value is 0.129.

On to ATAAGAAA, for which the “PBM E-score” value came out at 0.0546. The same measure for ACCCGAGT: -0.0613; for TAGTCGGA: -0.163; for TTATCGAA: 0.0652.

As for CTAACTCC, the “PBM E-score” value was -0.153.

For the sequence ATCGTAGA, the “PBM E-score” value amounted to 0.063. On to AACGAGAA, for which the “PBM E-score” value was 0.0892.

Take AACGAAAA: the “PBM E-score” value was -0.0514. For the sequence CTTACGTA, the “PBM E-score” value is 0.307. In the case of AGGTGGTG, the “PBM E-score” value was -0.163. The figure for GATGATCC is -0.233; for CTATAGAA it is -0.0476. On to CCGGAGAG, for which the “PBM E-score” value was -0.27. With CTAACCGC, the “PBM E-score” value is -0.0677. The same measure for ATGCTTTC: 0.138; for AAAAGAAG: 0.0386. In the case of GGTATTTA, the “PBM E-score” value is 0.0776. Consider GAACTTGA, for which the “PBM E-score” value was determined as 0.133. The figure for ACGGACCG is -0.219; for ATTTCCCC it is -0.153; for GTTGTCGA it is 0.115. The figure for GATGCACA is -0.0755; for ATGATGTA it is 0.358; for AGCACATA it is 0.134.

ACTCGGGC: the “PBM E-score” value is -0.105.

Turning to AATCCATC, the “PBM E-score” value is -0.146. The same measure for CTGTAGCA: 0.00904. The figure for GCTTAGAA is -0.00669; for TCGTTACA it is 0.224; for AAGGCCGG it is -0.305. The same measure for GGTAGGGA: -0.101; for CAAAGTTA: 0.156; for GGCTCGGA: -0.335. As for TCGGCCCA, the “PBM E-score” value was -0.168. In the case of ATTTGGGG, the “PBM E-score” value was -0.0967. With CAAGCGAA, the “PBM E-score” value was -0.00904. Take ATCTTAAT: the “PBM E-score” value stood at 0.0212. Turning to CTGGTTAC, the “PBM E-score” value amounted to 0.092. In the case of AGCAACTA, the “PBM E-score” value was found to be 0.198. The figure for GAGGCGAC is -0.229. In the case of CCTTAGTC, the “PBM E-score” value was -0.149.

With GCTTCTAA, the “PBM E-score” value is -0.155.

Turning to CGCAACAA, the “PBM E-score” value is 0.283. Turning to CCCTTAAA, the “PBM E-score” value was -0.0696.

For the sequence ATTTCCAG, the “PBM E-score” value was found to be 0.0617. For CCCATATC, the “PBM E-score” value is -0.145. The figure for CGAACGCA is 0.258; for GCGCCTCA it is -0.341. On to CACTCAAG, for which the “PBM E-score” value was -0.0751. The same measure for AGGGCAAC: -0.206; for ACATTTCT: 0.0405; for CCATGCAG: -0.0719.

ATCGCGGC: the “PBM E-score” value was -0.163.
